Source: ChEMBL document CHEMBL4888484, “Replenishing the malaria drug discovery pipeline: Screening and hit evaluation of the MMV Hit Generation Library 1 (HGL1) against asexual blood stage Plasmodium falciparum ,using a nano luciferase reporter read-out” (2022)
Out of some 150,000 compounds screened, about 540 (0.36%) showed an effect of 50% or more. Some of the results follow.

Each compound was assayed on Plasmodium falciparum (assay: Primary screen in NF54 nanoGlo assay, in single point, at 2uM, 72h; a lower Z score goes with more inhibition). Conditions: timepoint 72 hour.
Assay type: functional, Erythrocyte

| Compound | % Inhibition [%] | Z score |
| --- | --- | --- |
| O=C(Nc1cc(Cl)ccc1Cl)[C@@H]1CCCN1C(=O)c1cccnc1 | 14 | -1.74 |
| CC1CCC(C(N)=O)CN1C(=O)CN1Cc2ccccc2C1 (stereo not given) | -9 | 1.71 |
| CC1CCCN(C(=O)CC2(CC(=O)N3CCCC(C)C3)CCCC2)C1 (stereo not given) | -7 | 0.94 |
| Cn1cc(C(=O)C(=O)NCC2CCC2)cn1 | 29 | -3.94 |
| O=C(N[C@H]1CN(C(=O)C2CCC2)C[C@@H]1C1CC1)c1ccnc(-n2cnnc2)c1 | 1 | -0.29 |
| Cc1csc(CCCNC(=O)NC[C@H](O)c2ccccc2C)n1 | -5 | 0.5 |
| CC(C)(C)c1nc(Cn2c3c(sc2=O)CCCC3)no1 | 38 | -4.34 |
| Cc1cccc(-n2nc(CC(N)=O)nc2-c2cnc(C3CC3)nc2C)c1C | -13 | 1.3 |
| CCN(c1ccc(C(=O)Nc2ccccc2C(=O)N2CCCCC2)cc1)S(C)(=O)=O | -14 | 2.1 |
| Cc1ccc(CCC(=O)NC[C@H](c2ccnn2C)C(C)C)c(C)c1 | -3 | 0.33 |
| Cc1ccc(-c2nocc2CCC(=O)NCC2CC2)cc1 | -7 | 0.98 |
| CCc1nsc(N2CCC3(CC2)CNC(=O)c2ccccc2O3)n1 | 0 | 0 |
| O=C(c1c[nH]c(=O)[nH]1)N1CCN(Cc2ccc3ccccc3n2)CC1 | 2 | -0.32 |
| O=C(NCc1ccoc1)c1ccn(CC(F)F)n1 | -14 | 1.81 |
| CC(C)c1nsc(N[C@H]2CCS(=O)(=O)C3(CCC3)C2)n1 | -18 | 1.84 |
| CCc1cnc(N)nc1NCc1ccc2cc[nH]c2c1 | -13 | 1.82 |
| Cc1ccc(C(=O)NCC(=O)Nc2nc3cc4c(cc3s2)OCCO4)cc1 | -7 | 1.25 |
| C[C@H]1c2cccn2CCN1CC(=O)N(C)Cc1ccco1 | -5 | 0.7 |
| O=C1N[C@@H](c2cccc3c2OCCCO3)Nc2ncccc21 | -10 | 1.22 |
| CC(C)=CC1C(C(=O)N2CCCC(C(N)=O)C2)C1(C)C (stereo not given) | -9 | 1.48 |
| COc1ccc(-c2c(C)c(-c3nnc(C)o3)nn2-c2ccc(C(=O)NCCC#N)cc2)cc1 | 14 | -1.92 |
| O=C(NC1CCCc2c1[nH]c1ccc(F)cc21)[C@@H](c1ccccc1)n1cnnn1 (stereo not given in full) | 7 | -0.81 |
| Cc1ccc([C@H]2CN(CC(=O)Nc3cn(C)nc3C)C[C@@H]2N(C)C)cc1 | -12 | 2.27 |
| CC(C)c1cc(C(=O)N(C)C2CCS(=O)(=O)CC2)n(C)n1 | 3 | -0.49 |
| NC[C@H]1Cc2cc(-c3ccc4ccccc4n3)cc(Cl)c2O1 | 19 | -2.69 |
| COc1ccc(C2CN(Cc3cccc(C)c3)CC2CN(Cc2ccc(F)cc2)C(C)=O)cc1 (stereo not given) | -9 | 0.88 |
| Cc1nc(N)sc1CC(=O)NC[C@H]1CCCCN1C | -9 | 1.21 |
| CN1CCCC[C@H]1C(=O)NCc1c(F)c(F)cc(F)c1F | -7 | 0.94 |

| Compound | % Inhibition [%] | Z score |
| --- | --- | --- |
| COc1ccccc1C[C@H]1CCCN(S(=O)(=O)N2CCCC2)C1 | -15 | 1.53 |
| Cc1c(CN2CC(N3CCCCC3)C2)oc2ccccc12 | -5 | 0.71 |
| Cc1ccc2nc(Cc3ccccc3)c(NC(=O)C3CCCCC3)n2c1 | -7 | 1.06 |
| CC[C@@H]1OC2(CCN(C(=O)c3cccc(-n4ccnc4)c3)CC2)NC1=O | 3 | -0.41 |
| CCC(C)(Nc1ccc(Cl)cc1)c1nnnn1C(/C=C\c1ccc(Cl)cc1Cl)C(C)(C)C (stereo not given) | 1 | -0.17 |
| CC1CC(C)CN(C(C(=O)NC2CCCCC2)c2ccc(Cl)cc2)C1 (stereo not given) | 1 | -0.21 |
| Cc1nc(C(=O)N2CCC3(CC2)CC3(F)F)co1 | -10 | 1.28 |
| O=C(c1cc2n(n1)CCN(c1ccc3ccccc3n1)C2)N1CCCC1 | 2 | -0.32 |
| COc1ccc(-n2nc(C)c3sc(N4CCCN(C(=O)c5ccc(C)s5)CC4)nc32)cc1 | -7 | 1.31 |
| C[C@H]1OCC[C@H]1NC(=O)CCCc1cc(F)ccc1F | -19 | 2.51 |
| Cc1cnc(N2CCO[C@H](c3ccccc3)C2)nc1-c1cnn(C)c1 | -3 | 0.49 |
| CS(=O)(=O)C1(C(=O)N2CCC23CCC3)CCC1 | 1 | -0.18 |
| COC1CCN(C(=O)c2cc3c(s2)CCCCC3)CC1 | -10 | 1.76 |
| Cc1nc(C)c(F)c(NC2CCOC(c3ccnn3C)C2)n1 (stereo not given) | -8 | 0.89 |
| CN(C)c1ccc(NC(=O)c2ccc3c(c2)CCCC3)cn1 | -8 | 1 |
| COc1ccsc1S(=O)(=O)N(C)c1cccc(C)n1 | -11 | 1.91 |
| COc1cc(NC(=O)c2c(-c3ccccc3)noc2C)c(OC)cc1NC(=O)c1ccccc1 | 2 | -0.47 |
| CC(=O)Nc1ccc(C)c(NC(=O)N(C)CCc2noc(C)n2)c1 | -9 | 1.16 |
| O=C1CN(C(=O)C2CC2c2ccccc2C(F)(F)F)CCN1 (stereo not given) | 33 | -4.81 |
| CCOC(=O)c1nccc(N(C)CCc2cnccn2)n1 | -1 | 0.27 |
| CCOC(=O)N1CCC2(CCC(N3C[C@H](OC(C)C)[C@@H](O)C3)CC2)CC1 | -11 | 1.28 |
| CCCC(C#N)(CCC)NC(=O)[C@H](C)c1ccsc1 | 7 | -0.72 |
| COc1cc(NC(=O)c2cnc(N3CCCCC3)nc2C)cc(OC)c1 | -6 | 1.05 |
| Cc1cnn(C)c1S(=O)(=O)N[C@H](C1CCC1)C1CC1 | -2 | 0.3 |
| Cc1[nH]nc(C(=O)NCc2ccncc2)c1C | -9 | 0.92 |
| C[C@@H]1CN(CC(O)c2cccc(Cl)c2)CC(C(N)=O)O1 (stereo not given in full) | -13 | 1.72 |
| C#CCOc1cc(CNC(=O)C#CC)ccc1OC | -9 | 1.7 |
